In patent US20260116960A1 (SHANGHAI HONGCHENG BIOPHARMACEUTICAL, published 2026):

Tests used:
[1] = target: T1, human PD-1 protein (Acro, Catalog No. PD1-H5221) (human, UniProt Q15116 part only); experiment: ELISA, plate coated with human PD-1 protein
T1 construct: Bought protein; also called human PD1-his; not shown: his tag
Method: ELISA was used to determine the activity of the trispecific antibodies binding to the PD-1 protein: 1 μg/mL human PD-1 protein (Acro, Catalog No.: PD1-H5221) was used to coat a high-adsorption 96-well ELISA plate and incubated at 4° C. overnight. On the next day, the plate was washed three times with PBST solution and blocked with 1% BSA-PBS solution at 37° C. for 1 hour. At the same time, 3-fold gradient dilutions of the antibody were prepared with 1% BSA-PBS solution, with a starting concentration of 10 nM. The antibodies of each gradient concentration were added to the blocked 96-well ELISA plate at 100 µL/well in triplicate and incubated at 37° C. for 1 hour. The plate was then washed three times with 0.05% PBST solution, and 100 μL/well of HRP-labeled secondary antibody (Sigma, Catalog No.: A0170) diluted at 1:5000 was added to the ELISA plate and incubated at 37° C. for 1 hour. The plate was washed three times with 0.05% PBST solution and developed with TMB. The absorbance of the 96-well ELISA plate at 450 nm was detected by an ELISA reader. The OD₄₅₀ value was fitted using a four-parameter model to calculate the EC₅₀ value of each antibody binding to PD-1.

[2] = target: T2, human PD-1 on the cell surface (human, UniProt Q15116 25-288); experiment: flow cytometry, 293T-hPD-1 cells, batch FACS#1
T2 construct: whole, on cells; also called cell surface PD-1
Method: After centrifugation at 300 g for 5 minutes, the supernatant was discarded. The antibodies were serially diluted 3-fold with FACS buffer to obtain two gradient series solution FACS #1 and FACS #2, with the starting concentration of 200 nM (Table 5, FACS #1) or 100 nM (Table 5, FACS #2, FIG. 2), respectively. Then 100 μL/well was added to a 96-well plate in triplicate, mixed, and incubated at 4° C. for 60 min. The plate was centrifuged and washed three times with FACS buffer. 100 μL/well of 1:800 diluted AF647-anti-hIgG(H+L) (Jackson, Catalog No.: 109-605-003) was added and incubated at 4° C. for 50 minutes. After washing the plate three times with FACS buffer, 100 μL/well of FACS buffer was added to resuspend the cells, and the fluorescence signal was detected on a flow cytometer (BECKMAN COULTER cytoFLEX). The binding activity was fitted using a four-parameter model to calculate the EC₅₀ value of each antibody binding to PD-1.

[3] = target: T3, human CTLA-4 on the cell surface (human, UniProt P16410 36-223); experiment: flow cytometry, CHO-hCTLA-4 cells, batch FACS#4
T3 construct: whole, on cells; also called CHO-hCTLA-4 cells; CHOK1-hCTLA4 cells

[4] = target: T3, human CTLA-4 on the cell surface; experiment: flow cytometry competition, CHO-hCTLA-4 cells, biotin-human CD80
Method: CHO-hCTLA-4 cells were obtained by trypsin digestion, washed twice with PBS containing 2% FBS (FACS buffer), and resuspended in FACS buffer. 200 μL of the cells were added to a 96-well U-bottom plate, approximately 2×10⁵ cells/well. After centrifugation at 300 g for 5 minutes, the supernatant was discarded. […] After washing three times with FACS buffer, 100 μL/well of 1:800 diluted PE Streptavidin was added and incubated at 4° C. for 50 min. After washing three times with FACS buffer, 150 μL/well of PBS was added to resuspend the cells, and the fluorescence signal was detected on a flow cytometer (BECKMAN COULTER cytoFLEX). The four-parameter model was used to fit the binding activity and the IC₅₀ value of the blocking activity of each antibody was calculated.

[5] = target: T4, Biotinylated-hCTLA4 (Acro, Catalog No. CT4-H82E3) (human, UniProt P16410 36-161, biotinylated (site not stated)); experiment: sandwich ELISA: antibody titrated on coated human PD1-his, detected with biotinylated hCTLA4 and streptavidin-HRP
T4 construct: Bought protein

[6] = target: T5, Biotinylated Human VEGF165 (Acro, Catalog No. VE5-H82Q0) (human, UniProt P15692-4 27-191, biotinylated (site not stated)); experiment: sandwich ELISA: antibody titrated on coated human PD1-his, detected with biotinylated hVEGF165 and streptavidin-HRP
T5 construct: Bought protein; also called Biotinylated-hVEGF165; Biotin-hVEGF165
T5 sequence (looked up): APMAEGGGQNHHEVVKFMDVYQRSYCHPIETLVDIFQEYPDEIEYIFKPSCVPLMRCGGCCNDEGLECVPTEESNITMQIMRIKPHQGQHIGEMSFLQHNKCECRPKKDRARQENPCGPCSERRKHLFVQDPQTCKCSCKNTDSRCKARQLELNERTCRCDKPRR

[7] = target: T6, hPD1-mFc (Acro, Catalog No. PD1-H5255) (human, UniProt Q15116 part only); experiment: flow cytometry: antibody titrated on CHOK1-hCTLA4 cells, then mixture of hPD1-mFc and biotin-hVEGF165; AF647 anti-mIgG signal
T6 construct: Bought protein; also called human PD-1 mouse Fc fusion; not shown: mouse Fc (mFc)
Method: CHOK1-hCTLA4 cells were obtained by trypsin digestion, washed twice with PBS containing 2% FBS (FACS buffer), and the cell density was adjusted to about 8×10⁵ cells/ml. 200 μL/well of the cells were added to a 96-well U-bottom plate. After centrifugation at 300 g for 5 minutes, the supernatant was discarded and 100 μL of antibody solution serially diluted with FACS buffer was added in triplicate (with starting concentration of 200 nM, 3-fold serial dilution, and the same volume of FACS buffer was used as a negative control). Mixed well and incubated at 4° C. for 60 min. After washing the plate three times with FACS buffer, a mixture consisting of 1 μg/mL hPD1-mFc (Acro, Catalog No.: PD1-H5255) and 1 μg/mL Biotin-hVEGF165 in a 1:1 volume ratio was added to each well at 100 μL/well to detect the simultaneously binding activity of the trispecific antibodies to VEGF and PD-1 after binding to cell surface CTLA-4. […] After washing the plate three times with FACS buffer, 100 μL/well of PBS solution was added to resuspend the cells, and the fluorescence signal was detected on a flow cytometer. The binding activity was fitted using a four-parameter model, and the EC₅₀ value of each antibody was calculated.

T3 sequence (P16410 36-223): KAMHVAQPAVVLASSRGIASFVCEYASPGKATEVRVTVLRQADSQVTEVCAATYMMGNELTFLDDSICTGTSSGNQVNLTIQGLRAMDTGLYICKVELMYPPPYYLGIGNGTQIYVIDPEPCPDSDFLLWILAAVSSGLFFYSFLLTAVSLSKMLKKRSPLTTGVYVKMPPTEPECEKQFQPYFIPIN

- EC50 [1]: 0.08 nM
- EC50 [2]: 2.39 nM
- EC50 [3]: 4.29 nM
- IC50 [4]: 13.7 nM
- EC50 [5]: 0.105 nM
- EC50 [6]: 0.049 nM
- EC50 [7]: 1.92 nM
B1: HC010-F8 (trispecific antibody, human IgG4 S228P, kappa)
heavy: EVQLVESGGGLVQPGGSLRLSCAASGFTFSSYGMSWVRQAPGKCLEWVSTISGGGRDTYYPDSVKGRFTISRDNSKNTLYLQMNSLRAEDTAVYYCARQNGITWFADWGQGTLVTVSSGGGGSGGGGSGGGGSGGGGSDIQMTQSPSSLSASVGDRVTITCRASESVDNYGISFMNWYQQKPGKAPKLLIYAASNQGSGVPSRFSGSGSGTDFTLTISSLQPEDFATYYCQQSKEVPWTFGCGTKVEIKGGGGSGGGGSGGGGSGGGGSEVQLVESGGGLVQPGGSLRLSCAASGYTFTNYGMNWVRQAPGKGLEWVGWINTYTGEPTYAADFKRRFTFSLDTSKSTAYLQMNSLRAEDTAVYYCAKYPHYYGSSHWYFDVWGQGTLVTVSSASTKGPSVFPLAPCSRSTSESTAALGCLVKDYFPEPVTVSWNSGALTSGVHTFPAVLQSSGLYSLSSVVTVPSSSLGTKTYTCNVDHKPSNTKVDKRV[human IgG4 Fc with S228P (EU numbers) not spelt out]AGGGGSGGGGSGGGGSGGGGSEVQLLESGGGLVQPGGSLRLSCAASGSIFSINHMAWYRQAPGKQRELVAGVNSRGTTNYVDSVKGRFTISRDNSKNTLYLQMNSLRAEDTAVYYCRALGGAVAAWGQGTLVTVSS
light: DIQMTQSPSSLSASVGDRVTITCSASQDISNYLNWYQQKPGKAPKVLIYFTSSLHSGVPSRFSGSGSGTDFTLTISSLQPEDFATYYCQQYSTVPWTFGQGTKVEIKRTVAAPSVFIFPPSDEQLKSGTASVVCLLNNFYPREAKVQWKVDNALQSGNSQESVTEQDSKDSTYSLSSTLTLSKADYEKHKVYACEVTHQGLSSPVTKSFNRGEC
notes: light: bevacizumab VL-kappa; also called H010-F8
